21 compounds from article PMC12040169 (PLOS Biology, 2025) can be followed below.

The list shows a part of the results.

The assay has as its system T1, C. trachomatis L2/434/Bu expressing GFP (CTL2-GFP).
T1 construct: L2/434/Bu GFP intracellular growth in HeLa cells
Set-up: species or system HeLa; C. trachomatis total inclusion area by high-content imaging, normalised to DMSO. The following applies: total inclusion area; 28.5 h, 10 µM; inhibitor. The procedure, abridged: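 Post-fluorescence-read fixation, DNA staining with Hoechst and high-content imaging; GFP inclusion area and number per well, and nuclei counts, used as proxies for bacterial growth and host viability.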
On to `COc1cccc(NC(=O)CCN2CCN(CCO)CC2)c1` [CBK264207C], for which the “% of control remaining” value came out at 111.947.
Next, `COC(=O)C1CCCN1C(=O)C1(Oc2ccc(C)cc2)CCNCC1` (stereo not drawn) [CBK306655]: 78.054.
As to `COc1ccc(CCNc2c3c(c(C#N)c4nc5ccccc5n24)CCC3)cc1OC` [CBK263147], the “% of control remaining” value was determined as 74.0401.
For `Cc1c(NC(=O)c2ccccc2Cl)c(=O)n(-c2ccccc2)n1C` [CBK088068], the “% of control remaining” value is reported as 95.1379.
Under `OC(COc1cccc2c1CCCC2)CN1CCC(O)(c2ccccc2)CC1` (stereo not drawn) [CBK003585] stands 62.3145.
In the case of `COC(=O)CCc1ccc(S(=O)(=O)N2CCCN(Cc3ccc(C)o3)CC2)cc1` [CBK063081], the “% of control remaining” value came out at 108.275.
With `Oc1ccc2ccccc2c1/C=N/Nc1nc(NCc2ccccc2)nc(N2CCOCC2)n1` [CBK261233], the “% of control remaining” value is 93.6011.
As for `O=C1CC(c2ccccc2)n2nc(C(F)(F)F)nc2N1` (stereo not drawn) [CBK288063], the “% of control remaining” value was determined as 105.989.
Next, `O=C(O)c1cc(C(=O)O)c2ccccc2n1` [CBK262304]: 93.7991; `Cc1cc(C)n(-c2nc3ccccc3nc2N2CCN(S(=O)(=O)c3ccc(F)c(C)c3)CC2)n1` [CBK268508]: 94.8205; `COc1ccc([C@@]23CC=C(N(Cc4ccccc4)C(=O)Nc4ccc(F)c(F)c4)C[C@@H]2N(C)CC3)cc1OC` [CBK050179]: 24.3541.
Under `Cc1ccc(S(=O)(=O)Cc2ccc(C(=O)NCc3ccco3)cc2)cc1` [CBK268630] stands 84.0239; under `CS(=O)(=O)N1CC2(CCN(Cc3cccnc3)CC2)c2ccccc21` [CBK084006], 93.8763; under `COc1ccccc1-c1ccc(CC2(C(=O)NCc3cccs3)CCOCC2)cc1` [CBK286517], 93.297.
On to `O=C(Nc1cccc(C(F)(F)F)c1)c1ccc(N2CCNCC2)c([N+](=O)[O-])c1` [CBK266274], for which the “% of control remaining” value amounted to 73.9746.
Next, `Nc1ncc(-c2ccc(O)cc2)nc1N1CCN(CCO)CC1` [CBK063685]: 106.142; `O=C(NCc1ccc([N+](=O)[O-])cc1)c1cccnc1NCc1ccc2c(c1)OCO2` [CBK153436]: 0.1467.
`CCn1c(=O)n(CC(=O)N2CCCC3CCCCC32)c2cccnc21` (stereo not drawn) [CBK283893]: the “% of control remaining” value turned out to be 101.449.
Consider `O=C(NC1CCCC1)c1ncoc1-c1ccccc1` [CBK281937], for which the “% of control remaining” value is on record as 46.7375.
Under `O=C(Nc1ccc2c(c1)OCO2)N1CCN(c2ccc(F)cc2)CC1` [CBK270332] stands 97.6993; under `Cn1ccnc1C1(O)CC2CCC(C1)N2C(=O)NC1CCCCC1` (stereo not drawn) [CBK284049], 101.192.
